Results from the supplement of paper PMC4466236.
In all, about 33,000 sequences were measured (“E-score (dimensionless, -0.5 to 0.5)”: median about -0.058, highest 2% from about 0.35 on). This is one part of the list.

Test system: MvaT
Experiment: PBM 8-mer E-score (mean of HK and ME arrays) (E-score (dimensionless, -0.5 to 0.5)); higher = stronger relative binding preference; most listed sequences are background and not binding sites
Procedure, shortened: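 Reported values are rank-based E-scores, taken as the mean of two universal arrays and parsed with a custom script. Each 8-mer score falls between -0.5 and 0.5. The arrays, ME and HK, were double-stranded 60-mers with a constant 25-mer primer region and a variable 35-mer region covering all 8-mers. They were probed, by an earlier protocol, with full-length P. aeruginosa MvaT carrying an N-terminal glutathione S-transferase fusion.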

| Sequence | PBM 8-mer E-score |
| --- | --- |
| AATTGGTA | 0.178 |
| CGAGTTAA | 0.222 |
| CACTGAAG | -0.245 |
| CGGGCCTC | -0.34 |
| CAAGGTCG | -0.153 |
| AAGAGTCT | -0.0411 |
| ACGACAAA | 0.111 |
| CTTCAGCC | -0.254 |
| ACGTAGCG | -0.212 |
| AAAACACC | 0.0822 |
| AGTCGATC | -0.105 |
| TCCTAACA | 0.0526 |
| TACCACAA | 0.0498 |
| AGCAGGCA | -0.152 |
| TAGCCTCA | -0.117 |
| CTCAATCC | -0.101 |
| GGCGACTA | -0.259 |
| ACGCCAGC | -0.115 |
| CGCTTGCA | -0.187 |
| CGCCGCAG | -0.24 |
| ATTTTACA | 0.371 |
| CTCCCCTA | -0.28 |
| CTTCGTGC | -0.0984 |
| AGGGCGTC | -0.316 |
| ATGGGCCC | -0.256 |

| Sequence | PBM 8-mer E-score |
| --- | --- |
| CAACGGAC | -0.0222 |
| AGACTTCA | 0.0386 |
| AATAAGAA | 0.318 |
| AAAGAATA | 0.269 |
| GTCCTCTA | -0.173 |
| TCCCGACA | -0.0439 |
| ATGTTAAT | 0.39 |
| GAGGGACA | -0.27 |
| TCCGTTCA | -0.122 |
| AGAGTACG | -0.08 |
| ATTCTAAA | 0.284 |
| CCAGCCGC | -0.0764 |
| AGATTAAA | 0.178 |
| CCATTGAC | -0.0593 |
| CGAAGGAA | -0.155 |
| AACGTAAT | 0.166 |
| AGGCTCGC | -0.403 |
| ATCGGAGC | -0.143 |
| ATAAGGGA | 0.0576 |
| AAGGCCGT | -0.185 |
| ATTACCTG | 0.103 |
| CCGCAGCA | -0.264 |
| CTTTTAAA | 0.361 |
| ACGCTTGA | -0.0657 |
| AGGCGCCG | -0.225 |

| Sequence | PBM 8-mer E-score |
| --- | --- |
| AGTGTTAC | 0.172 |
| ACCGCATG | -0.0413 |
| AAGGCTTA | -0.0599 |
| AAATGGCA | 0.135 |
| GTAGTATA | 0.319 |
| CAAAGGGC | -0.176 |
| ATGGGACG | -0.134 |
| CATGCTCG | -0.173 |
| CGCGCAAC | -0.0927 |
| AATCTAAT | 0.214 |
| CGGCGGAA | -0.176 |
| GTGTGTTA | 0.219 |
| ATCCGTGC | -0.0813 |
| ATGGACCA | -0.0532 |
| ATCAATAG | 0.172 |
| CTCCCTCA | -0.243 |
| AACCCTTC | -0.178 |
| AATTCGTC | 0.0806 |
| CTAGAGTA | 0.132 |
| ACTATCCA | 0.184 |
| AAATGGGG | -0.107 |
| ATAGGACA | 0.0602 |
| CCACGTTA | 0.014 |
| ACACAAAC | 0.128 |
| GCCCTGGA | -0.166 |

| Sequence | PBM 8-mer E-score |
| --- | --- |
| CCCGATGC | -0.187 |
| AGAACCCA | -0.0864 |
| ACACCAGT | -0.0729 |
| CCCAGACA | -0.144 |
| CCACGAGA | -0.207 |
| AGTCCTCC | -0.383 |
| GAGGACCA | -0.315 |
| TATTTGGA | 0.11 |
| GGCTATGA | -0.155 |
| CATAGGAA | 0.0569 |
| GCACTGAC | -0.075 |
| AGTCTTCC | -0.0423 |
| CGGATGCA | -0.169 |
| GGTGAGAC | -0.062 |
| GAATTTGC | 0.153 |
| CCCCGTCA | -0.0663 |
| ACGTATAA | 0.299 |
| ACCCCTAG | -0.269 |
| ATTCCAGC | -0.0792 |
| CGACAATC | -0.0278 |
| AGGAAAGC | -0.233 |
| ACTAAAGT | 0.216 |
| ATAGGCGC | -0.0551 |
| CTTGAAGC | -0.22 |
| GAACTCAC | -0.0819 |

| Sequence | PBM 8-mer E-score |
| --- | --- |
| CACCGTGC | -0.175 |
| CCGCGGAA | -0.0513 |
| CCCGGACC | -0.337 |
| GCCGTGCC | -0.167 |
| TCAGTACA | 0.0419 |
| AATACCGT | 0.0534 |
| CTCTGACA | -0.209 |
| CTACGAAA | 0.0454 |
| CATAAAGA | 0.134 |
| AGCACCAC | -0.21 |
| ATGTTCCC | 0.0221 |
| AACTGCAA | 0.207 |
| AGTTTGAT | 0.24 |
| CAGACACC | -0.0553 |
| CAAAGTGA | 0.16 |
| CAACCCCA | -0.0732 |
| GGCAACGA | -0.0752 |
| ACGATACG | -0.149 |
| CGGTCTCC | -0.241 |
| CGAAGGGA | -0.356 |
| CTAGTCCA | -0.0295 |
| CCCGACCG | -0.284 |
| GAATCGGA | -0.0399 |
| AGGCGGGC | -0.225 |
| ACATGTCA | 0.0432 |

| Sequence | PBM 8-mer E-score |
| --- | --- |
| AATTAGAA | 0.301 |
| AGTAGTGG | 0.106 |
| CGGGTCTA | -0.216 |
| ACTGACCC | -0.197 |
| AGAACTCA | -0.0844 |
| ATAAAGGC | -0.0383 |
| ACCCGTAC | -0.0627 |
| GTTATTAA | 0.383 |
| AACTGCAG | -0.0112 |
| CCAAACCA | 0.0446 |
| GGCGCACC | -0.275 |
| AGACGTAT | -0.0441 |
| AGTGATCA | -0.052 |
| GCCCCGGA | -0.364 |
| GCAACCCA | 0.0138 |
| ACACGCAA | 0.112 |
| TAGGATCA | -0.0994 |
| AACGCGAG | -0.174 |
| GACACTTA | 0.216 |
| GCTGCAGA | -0.0279 |
| ATGTCAAA | 0.2 |
| AAACACTT | 0.226 |
| ACGCAACG | -0.213 |
| CCCCAGAC | -0.233 |
| CACCGTAA | 0.0765 |

| Sequence | PBM 8-mer E-score |
| --- | --- |
| ATATAGAC | 0.224 |
| CCCAGGTC | -0.222 |
| ATTCTTAC | 0.0996 |
| CCTGCGCC | -0.28 |
| ATTAGAGG | 0.113 |
| AGTCGTTC | -0.157 |
| AGATGGAT | -0.00506 |
| ACTCAAAA | 0.0955 |
| CACCTCGA | -0.244 |
| CATCTCTC | -0.116 |
| AAAACTCG | 0.0362 |
| TCACTGAA | -0.0165 |
| CTACAGTA | 0.155 |
| CCTCGACA | -0.0454 |
| CTGTCAGA | -0.132 |
| GACAATAC | 0.149 |
| CTGCAATC | -0.0619 |
| TAAGATGA | 0.0542 |
| ATCCGTAG | -0.161 |
| ATGGAGAA | 0.0308 |
| AGTCCGAC | -0.0922 |
| AGAACGGA | 0.0561 |
